The values that follow come from patent US6800434B2, “Peptides as NS3-serine protease inhibitors of hepatitis C virus” (priority 2000, dated 2004).

SMILES strings stand for the structures. Starred links: 1 amine or outer side, 2 acyl side, 3 side chain; linkers in the order of their positions; H or OH if unused. Non-standard residues stand in square brackets, D forms with d. Residues, ends and D or L forms follow the SMILES beside them. ξ: configuration not given here. *: point of attachment. Pro(trans-4-NH2) = O=C([C@@H]1C[C@@H](N[*:3])CN1[*:1])[*:2]; X34 = O=C(NC[C@@H]1C[C@@H](C(=O)[*:2])N([*:1])C1)Oc1ccccc1; Pro(4,4-SCH2CH2S) = O=C(O)[C@@H]1CC2(CN1)SCCS2; X35 = C=CC[C@@H]1C[C@@H](C(=O)[*:2])N([*:1])C1; Dip = N[C@H](C(=O)O)C(c1ccccc1)c1ccccc1; X23 = CSC[C@H](N[*:1])C(=O)C(=O)[*:2]; Tiq1c(1S) = O=C(O)[C@H]1NCCc2ccccc21; X1 = CCC[C@H](N[*:1])C(=O)C(=O)[*:2]; Fmoc = O=C(OCC1c2ccccc2-c2ccccc21)*; Hyp = O=C(O)[C@@H]1C[C@@H](O)CN1; X3 = CCCC(N[*:1])C(=O)C(=O)[*:2]; Ile(3ξ) = CCC(C)[C@H](N)C(=O)O; Chg = N[C@H](C(=O)O)C1CCCCC1; Tle = CC(C)(C)[C@H](N)C(=O)O; Pip = O=C(O)[C@@H]1CCCCN1; ξChg = NC(C(=O)O)C1CCCCC1; ξPhg = NC(C(=O)O)c1ccccc1; Carboxymethyl = O=C(O)C*; ξE = NC(CCC(=O)O)C(=O)O; ξV = CC(C)C(N)C(=O)O; GABA = NCCCC(=O)O; OtBu = CC(C)(C)O*; NHAllyl = C=CCN*; OAll = C=CCO*; OPr = CCCO*

In the first experiment the target is Recombinant heterodimeric HCV NS3/NS4A protease (strain 1a) (Hepatitis C virus genotype 1a, UniProt P27958). Put plainly: biochemical.
Settings: not given
In the case of `CCC[C@H](NC(=O)[C@@H]1C[C@@H](CNC(=O)Oc2ccccc2)CN1C(=O)[C@@H](NC(=O)[C@@H](NC(=O)[C@H](CCC(=O)O)NC(=O)[C@H](CCC(=O)O)NC(C)=O)C(C)C)C(C)C)C(=O)C(=O)NCC(=O)O` [Ac-EEVV-P(4t-MeNHCO2Ph)-nV-(CO)-G-OH] (Ac-EEVV[X34][X1]G-OH), the Ki lay within 1 to 100 nM.

The experiment is the same for the next values; noted with them: Ki* Range.
`CCC[C@H](NC(=O)[C@H](CSCC(=O)O)NC(=O)[C@@H](NC(=O)[C@@H](NC(=O)[C@H](CCC(=O)O)NC(=O)[C@H](CCC(=O)O)NC(C)=O)C(C)C)C(C)C)C(=O)C(=O)NCC(=O)O` [Ac-EEVV-C(2-AcOH)-nV-(CO)-G-OH] (Ac-EEVVC(Carboxymethyl)[X1]G-OH): the Ki is 1 to 100 nM.

As for `C=CCNC(=O)C(=O)C(CCC)NC(=O)[C@@H]1CCCN1C(=O)[C@@H](NC(=O)[C@@H](NC(=O)[C@H](CCC(=O)OC(C)(C)C)NC(=O)[C@H](CCC(=O)OC(C)(C)C)NC(C)=O)C(C)C)C(C)(C)C` (stereo partly drawn) [Compound 48] (Ac-E(OtBu)E(OtBu)V[Tle]P[X3]-NHAllyl), the Ki was 101 to 999 nM.

With `C=CCOC(=O)CNC(=O)C(=O)C(CCC)NC(=O)[C@@H]1C[C@@H](O)CN1C(=O)[C@@H](NC(=O)[C@@H](NC(=O)[C@H](CCC(=O)O)NC(=O)[C@H](CCC(=O)O)NC(C)=O)C(C)C)C(C)C` (stereo partly drawn) [Compound 42] (Ac-EEVV[Hyp][X3]G-OAll), the Ki lay within 1 to 100 nM.

As for `COC(=O)CNC(=O)C(=O)[C@H](CSC)NC(=O)[C@@H]1CCCN1C(=O)[C@@H](NC(=O)[C@@H](NC(=O)[C@H](CCC(=O)O)NC(=O)[C@H](CCC(=O)O)NC(C)=O)C(C)C)C(C)C` [Ac-EEVVP-C(Me)-(CO)-G-OMe] (Ac-EEVVP[X23]G-OMe), the Ki fell in the range of 1000 to 10000 nM.

Regarding `CCC[C@H](NC(=O)[C@@H]1CCCN1C(=O)[C@@H](NC(=O)[C@@H](NC(=O)[C@H](CCC(=O)O)NC(=O)[C@H](CCC(=O)O)NC(C)=O)C(C)C)C(c1ccccc1)c1ccccc1)C(=O)C(=O)NCC(=O)O` [Ac-EEVDifP-nV-(CO)-G-OH] (Ac-EEV[Dip]P[X1]G-OH), the Ki is 101 to 999 nM.

With `CCC[C@H](NC(=O)[C@@H]1CCCN1C(=O)[C@@H](NC(=O)[C@@H](NC(=O)[C@H](CCC(=O)OC(C)(C)C)NC(=O)[C@H](CCC(=O)OC(C)(C)C)NC(C)=O)C(C)C)C(C)C)C(=O)C(=O)NCCCC(=O)O` [Compound 19] (Ac-E(OtBu)E(OtBu)VVP[X1][GABA]-OH), the Ki fell in the range of 1000 to 10000 nM.

As for `CCC[C@H](NC(=O)[C@@H]1C[C@@H](NC(=O)OCC2c3ccccc3-c3ccccc32)CN1C(=O)[C@@H](NC(=O)[C@@H](NC(=O)[C@H](CCC(=O)O)NC(=O)[C@H](CCC(=O)O)NC(C)=O)C(C)C)C(C)C)C(=O)C(=O)NCC(=O)O` [Ac-EEVV-P(4t-NH-Fmoc)-nV-(CO)-G-OH] (Ac-EEVV[Pro(trans-4-NH2)](Fmoc)[X1]G-OH), the Ki is 1 to 100 nM.

Regarding `CCC[C@H](NC(=O)[C@@H]1CCCN1C(=O)[C@@H](NC(=O)[C@@H](NC(=O)[C@H](CCC(=O)O)NC(=O)[C@H](CCC(=O)O)NC(C)=O)C(C)C)C(C)C)C(=O)C(=O)NCCCC(=O)OCC` [Compound 17] (Ac-EEVVP[X1][GABA]-OEt), the Ki is 1000 to 10000 nM.

Take `CCCOC(=O)CNC(=O)C(=O)C(CCC)NC(=O)[C@@H]1CCCCN1C(=O)[C@@H](NC(=O)[C@@H](NC(=O)[C@H](CCC(=O)OC(C)(C)C)NC(=O)[C@H](CCC(=O)OC(C)(C)C)NC(C)=O)C(C)C)C1CCCCC1` (stereo partly drawn) [Compound 77] (Ac-E(OtBu)E(OtBu)V[Chg][Pip][X3]G-OPr): the Ki lay within 1000 to 10000 nM.

`C=CC[C@@H]1C[C@@H](C(=O)N[C@@H](CCC)C(=O)C(=O)NCC(=O)O)N(C(=O)[C@@H](NC(=O)[C@@H](NC(=O)[C@H](CCC(=O)O)NC(=O)[C@H](CCC(=O)O)NC(C)=O)C(C)C)C(C)C)C1` [Ac-EEVV-P(4t-allyl)-nV-(CO)-G-OH] (Ac-EEVV[X35][X1]G-OH): the Ki fell in the range of 1 to 100 nM.

Consider `CCC[C@H](NC(=O)[C@@H]1CCCN1C(=O)[C@@H](NC(=O)[C@@H](NC(=O)[C@H](CCC(=O)O)NC(=O)[C@H](CCC(=O)O)NC(C)=O)C(C)C)C(C)CC)C(=O)C(=O)NCC(=O)O` (stereo partly drawn) [Ac-EEVIP-nV-(CO)-G-OH] (Ac-EEV[Ile(3ξ)]P[X1]G-OH), for which the Ki fell in the range of 1 to 100 nM.

`CCCC(NC(=O)[C@@H]1CC2(CN1C(=O)C(NC(=O)C(NC(=O)C(CCC(=O)O)NC(=O)C(CCC(=O)O)NC(C)=O)C(C)C)C1CCCCC1)SCCS2)C(=O)C(=O)NCC(=O)NC(C(N)=O)c1ccccc1` (stereo partly drawn) [Compound 87] (Ac-[ξE][ξE][ξV][ξChg][Pro(4,4-SCH2CH2S)][X3]G[ξPhg]-NH2): the Ki was in the range of 1 to 100 nM.

For the compound `C=CCOC(=O)CNC(=O)C(=O)C(CCC)NC(=O)[C@@H]1c2ccccc2CCN1C(=O)[C@@H](NC(=O)[C@@H](NC(=O)[C@H](CCC(=O)O)NC(=O)[C@H](CCC(=O)O)NC(C)=O)C(C)C)C1CCCCC1` (stereo partly drawn) [Compound 71] (Ac-EEV[Chg][Tiq1c(1S)][X3]G-OAll), the Ki was in the range of 101 to 999 nM.

Consider `CCC[C@H](NC(=O)[C@@H]1CCCN1C(=O)[C@@H](NC(=O)[C@@H](NC(=O)[C@H](CCC(=O)O)NC(=O)[C@H](CCC(=O)O)NC(C)=O)C(C)C)C(C)C)C(=O)C(=O)NCC(=O)O` [Ac-EEVVP-nV-(CO)-G-OH, Ac-Glu-Glu-Val-Val-Pro-nVal-(CO)-Gly-OH] (Ac-EEVVP[X1]G-OH), for which the Ki lay within 1 to 100 nM.
